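All cell lines were grown in 96-well plates and treated with compound for 48 hours. GI50: concentration for 50% inhibition of growth. The concentration for full growth arrest is given as TGI.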 Where only a bound is given, the exact number is not on record here.

This experiment concerns NCI-H322M lung. The experiment can be described thus: NCI-60 cell line screen, 48 h.

As for `CC(=O)c1c(Nc2ccc(F)c(F)c2F)[nH]c2c(F)cc(F)cc2c1=O`, the GI50 is 0.292 µM and the TGI was 9.2 µM.

`CCOc1cccc(/C=N/NC(=O)Cc2ccc(Nc3ccnc(C(F)(F)F)c3)cc2)c1O`: the GI50 is 2.6 µM and the TGI is greater than 100 µM.

`O=C(O)C(O)c1ccc(F)cc1` (stereo not drawn): the TGI is greater than 100 µM.

As to `CCCCCCCCCCCCCCCCCCNC(=O)[C@H]1CSC(c2ccc(F)c(OC)c2)N1` (stereo partly drawn), the GI50 was 1.73 µM and the TGI was greater than 50 µM.

For the compound `CCc1ccc(OCc2ccccc2C(=O)Nc2ccc3nc(C)cc(N)c3c2)cc1`, the GI50 was 1.6 µM and the TGI worked out at 2.97 µM.

`OC(CCN1CCN(CCOC(c2ccc(F)cc2)c2ccc(F)cc2)CC1)c1ccc(Br)cc1` (stereo not drawn) registered a TGI of 23.4 µM.

`CCC1(Cl)C(=O)NC(=O)N(C2CC(O)C(CO)O2)C1N=[N+]=[N-]` (stereo not drawn) gave a TGI greater than 100 µM.

With `C[N+]1(CCCCN2c3ccccc3Sc3cc(N=[N+]=[N-])ccc32)CCN(C(=O)CCNC(=O)Cc2ccc(C(=O)c3ccccc3)cc2)CC1`, the TGI was found to be 38.6 µM.

Take `Fc1ccc(-c2cc(-c3cn[nH]c3-c3ccccn3)ccn2)cc1`: the GI50 is greater than 25 µM and the TGI was greater than 25 µM.

`COc1ccc2c(c1)CCC(CN1CCN(CCOC(c3ccccc3)c3ccccc3)CC1)C2O` (stereo not drawn) registered a TGI of 29.5 µM.

For the compound `CC(=O)OC1Oc2cc(C)c(C)cc2-c2oc(=O)c(-c3ccccc3)cc21` (stereo not drawn), the GI50 is 0.601 µM and the TGI is greater than 100 µM.

For `O=c1cccc2n1CC1CNCC2C1` (stereo not drawn), the TGI is greater than 100 µM.

Compound `O=C1CCCC2=C1CC1=C(CCCC1=O)N2c1ccc(-c2ccccc2)cc1` had a TGI greater than 100 µM.

In the case of `CC(C)(C)[Si](C)(C)OC1CCOC1(O)c1ccccn1` (stereo not drawn), the TGI was greater than 100 µM.

`COc1ccc(-c2oc3cc(OC)ccc3c(=O)c2O)cc1` showed a TGI greater than 100 µM.

In turn, `O=C(NOC(=O)c1ccc([N+](=O)[O-])cc1)c1ccc(Cl)cc1` showed a TGI greater than 100 µM.

For `NCCNc1nc2ccccc2c2c(=O)c3cc(F)cc(Cl)c3sc12`, the GI50 is 1.5 µM and the TGI was 2.85 µM.

Consider `COC(=O)C1=C(C(=O)OC)C(C(=O)OC)C(C(=O)OC)C(C(=O)OC)(C(=O)OC)C(C(=O)OC)=C1C(=O)OC` (stereo not drawn), for which the TGI came out at 39.7 µM.

Compound `COC(=O)c1ccc2cc(O)ccc2c1` had a TGI greater than 100 µM.

As for `Nc1cc2nc(-c3ccccc3)cn2cn1`, the TGI is greater than 100 µM.

`Cc1ccc(N2C(=O)/C(=C3\Sc4c(nc(C)n(C)c4=O)N3c3ccccc3)SC2=S)cc1`: the TGI was greater than 100 µM.

Turning to `Cc1cc(Nc2cc(N3CCN(C)CC3)nc(C#Cc3ccccc3)n2)n[nH]1`, the GI50 is 1.37 µM and the TGI is 15.6 µM.

`COC(=O)Cc1cc(=O)oc2c1C(=O)CCC2` had a TGI greater than 100 µM.

Consider `O=c1c2ccccc2c(=O)c2c1sc1c(=O)c3ccc(O)cc3c(=O)c12`, for which the GI50 was 0.177 µM and the TGI is 0.326 µM.

For `COc1ccccc1Cn1c2c(c3cc(O)ccc31)C(=O)c1ccccc1C2=O`, the TGI was greater than 100 µM.

Regarding `Cc1cc(N(CCC#N)CCC#N)ccc1/C=C/C(=O)Nc1ccccc1Cl`, the TGI is greater than 100 µM.

For `CC(C)c1ccc2c(c1)c(SC(C)(C)C)c(CC(C)(C)C(=O)O)n2Cc1ccc(Cl)cc1`, the GI50 is 12.6 µM and the TGI came out at 26.4 µM.

As for `OCCN(CCO)c1ncnc2c1sc(=S)n2-c1ccccc1`, the TGI was greater than 100 µM.

On to `COc1ccc(-c2cn(-c3cc(OC)c(OC)c(OC)c3)c(=O)n2-c2ccccc2)cc1`, for which the GI50 was greater than 100 µM and the TGI was greater than 100 µM.

With `Nc1nc(Cl)cc(NCCCCCCNc2cc(Cl)nc(N)n2)n1`, the TGI came out at 77.4 µM.

Compound `COC(=O)[C@@H]1[C@H]2CC[C@]3(C)[C@@H](OC(C)=O)CC[C@H]3[C@@H]2CC[C@H]1C1(C)SCCS1` showed a TGI greater than 100 µM.

In the case of `N#CC1=C(N)NC(=S)C(C#N)C12Nc1ccccc1S2` (stereo not drawn), the GI50 was 30.9 µM and the TGI was 80.1 µM.

Take `CCC1(c2ccc(OC)c(OC)c2)CCN2C(=O)C(O)CC21` (stereo not drawn): the TGI was greater than 100 µM.

Compound `C[C@@](Br)(C(=O)O)[C@H](Br)C(=O)O` registered a TGI greater than 100 µM.

On to `CN(C)C(=O)/N=C1\SC(=Nc2ccccc2)C(=Nc2ccccc2)N1c1ccc([N+](=O)[O-])cc1`, for which the TGI was greater than 100 µM.

With `CCOC(=O)c1cc(C(=O)O)c(=O)n2c1[nH]c1ccccc12`, the TGI was greater than 100 µM.

The values are drawn from PubChem BioAssay (NCI).
